Measurements as given in publication PMC12660392 (2025).

T1: IL-2 receptor on PHA-activated PBMC (Homo sapiens, UniProt P01589)
T1 chain 1: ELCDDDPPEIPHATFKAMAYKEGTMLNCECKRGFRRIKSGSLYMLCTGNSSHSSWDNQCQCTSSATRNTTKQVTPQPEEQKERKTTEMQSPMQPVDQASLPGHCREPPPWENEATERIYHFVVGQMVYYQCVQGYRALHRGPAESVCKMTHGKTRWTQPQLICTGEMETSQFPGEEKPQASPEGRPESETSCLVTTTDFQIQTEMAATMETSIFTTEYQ
T1 chain 2: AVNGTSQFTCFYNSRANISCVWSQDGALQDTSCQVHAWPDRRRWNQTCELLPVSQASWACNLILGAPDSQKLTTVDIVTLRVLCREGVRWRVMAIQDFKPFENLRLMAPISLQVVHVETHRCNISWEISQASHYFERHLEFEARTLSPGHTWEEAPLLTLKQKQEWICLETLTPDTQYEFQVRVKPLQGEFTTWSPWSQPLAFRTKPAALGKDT
T1 chain 3: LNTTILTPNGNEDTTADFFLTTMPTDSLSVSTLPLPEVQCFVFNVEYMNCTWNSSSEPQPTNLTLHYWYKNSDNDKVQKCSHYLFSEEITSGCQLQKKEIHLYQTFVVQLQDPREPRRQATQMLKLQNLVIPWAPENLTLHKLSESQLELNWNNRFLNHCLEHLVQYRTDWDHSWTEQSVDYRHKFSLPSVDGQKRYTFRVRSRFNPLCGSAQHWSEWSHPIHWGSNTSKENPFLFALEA


Key:
[1] = molecular target: T1, IL-2 receptor on PHA-activated PBMC; assay: LigandTracer kinetic cell binding assay (single experiment, Fig. 2B)
[2] = molecular target: T1, IL-2 receptor on PHA-activated PBMC; assay: LigandTracer kinetic cell binding assay (single experiment, Fig. 2C)

Row | Kd [1] | Kd [2] | Binder
1 | 0.863 nM | – | Aldesleukin (THP-desIL2) (protein) not shown
2 | – | 48.7 nM | Aldesleukin (NODAGA-desIL2) (protein) not shown
